Measurements taken from PubChem BioAssay AID1347073 (National Center for Advancing Translational Sciences (NCATS), 2019).
Among all 45,000 compounds or so, about 200 (0.44%) were called active. Another 7% or so got no clear call; they are omitted. The call rests on the fitted dose curve; in most records, active means well fitted activation curve with a large enough effect; inconclusive means small, poorly fitted or top-dose-only effect; inactive means no such curve, though single readings can be large or run the other way. Some of the results follow.

Experiment: qHTS of TDP-43 Inhibitors: NCGC Sytravon Library Screen; further: 0% is about no effect; nearly all actives have a fitted effect of over 55% in size
Settings: yeast TDP-43 toxicity rescue, BacTiter-Glo growth, 24 h; series mostly up to 46.1 µM; growth rescue (activation): at the top concentration
Summary of the method: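 TDP-43-expressing yeast, pregrown in raffinose, seeded at OD600 0.02 in galactose medium with compound for 24 hr at 30 deg C. Growth read by BacTiter-Glo luminescence, so rescue of toxicity appears as activation.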
In the case of `Cc1ccc[n+](-c2[nH]c(=O)sc2/C=N/NC(=O)c2ccccc2[O-])c1`, the “growth rescue (activation)” value was inactive: -14.8%. With `CCCCNC(=O)COC(=O)c1ccc(F)cc1Cl` the “growth rescue (activation)” value was inactive: 4.96%. For `CN(Cc1ccccc1)C(=O)COC(=O)C1CCN(S(=O)(=O)c2cccs2)CC1`, the “growth rescue (activation)” value was inactive: 5.85%. With `COCc1cc(C)nc(SCC(=O)Nc2ccc3[nH]c(=O)[nH]c3c2)c1C#N` the “growth rescue (activation)” value was inactive: -2.3%. For `COc1cccc(OC)c1OCCNC(C)(C)C`, the “growth rescue (activation)” value was inactive: 21.5%. In the case of `Brc1ccc(/C=N/Nc2ccccn2)cc1`, the “growth rescue (activation)” value was inactive: 16.2%. With `Cc1ccc(O)c(C2=Nc3ccccc3N=C(c3ccc([N+](=O)[O-])cc3)C2)c1` the “growth rescue (activation)” value was inactive: 6.92%. For `Cc1ccc(C(=O)NNC(=O)c2ccc(S(=O)(=O)N3CCCCC3)cc2)cc1`, the “growth rescue (activation)” value was inactive: -62.1%. In the case of `O=C(OCc1cc(=O)n2c(n1)sc1ccccc12)c1cccc(O)c1`, the “growth rescue (activation)” value was inactive: 7.22%. In the case of `COc1ccc(-c2nn(-c3ccccc3C)cc2CNCCc2cnc[nH]2)cc1F`, the “growth rescue (activation)” value was inactive: 6.54%. In the case of `Cc1ccc(-c2nnn(CC(=O)N(CCN3CCOCC3)C(C(=O)NC(C)(C)C)c3ccc(C)o3)n2)cc1` (configuration not stated), the “growth rescue (activation)” value was inactive: 19.8%. For `CC1CCC(C(C)C)C(OC(=O)C[n+]2cc(-c3ccc(Cl)cc3)n3c2CCCCC3)C1` (configuration not stated), the “growth rescue (activation)” value was inactive: -1.8%. With `OCCCNc1c2ccccc2nc2ccccc12` the “growth rescue (activation)” value was inactive: 10.4%. For `O=C(NNS(=O)(=O)c1ccc(F)cc1)c1cc2ccccc2cc1O`, the “growth rescue (activation)” value was inactive: 0.311%. With `O=C(COC(=O)CNC(=O)c1ccccc1)NCCCc1ccccc1` the “growth rescue (activation)” value was inactive: 1.7%. With `COc1ccc(Br)cc1/C=N/N1CCN(Cc2ccccc2)CC1` the “growth rescue (activation)” value was inactive: 3.91%. With `CNc1nc(SCc2ccccc2Cl)nc2c1CCCC2` the “growth rescue (activation)” value was inactive: -93.2%. For `CSc1ncccc1C(=O)Nc1nccs1`, the “growth rescue (activation)” value was inactive: 9.39%. With `COc1ccccc1N1CCN(S(=O)(=O)c2ccc3c(c2)oc(=O)n3C)CC1` the “growth rescue (activation)” value was inactive: 18.2%. With `CCCC(=O)Nc1cccc(-c2nc3ccccc3c(=O)o2)c1` the “growth rescue (activation)” value was inactive: 4.83%. For `O=c1[nH]oc(O)c1-c1ncc(C(F)(F)F)cc1Cl`, the “growth rescue (activation)” value was inactive: -3.8%. For `CC(C)COC(=O)C(N)C(C(=O)OCC(C)C)c1ccccc1` (configuration not stated), the “growth rescue (activation)” value was inactive: 16.1%. For `Cc1c(C(=O)O)sc2nc(/C=C/c3cccc(O)c3)[nH]c(=O)c12`, the “growth rescue (activation)” value was inactive: -1.49%. With `O=[N+]([O-])c1ccc(N/N=C/c2cccc(O)c2)cc1` the “growth rescue (activation)” value was inactive: -45.9%. In the case of `Cc1occc1-c1nnc(SCC(=O)Nc2ccccc2)n1C`, the “growth rescue (activation)” value was inactive: -5.54%. For `CCOc1ccc(S(=O)(=O)N(C)CC(=O)NCCN2CCOCC2)cc1`, the “growth rescue (activation)” value was inactive: -15.3%. For `Cc1cc(/C([O-])=C(/C(=S)Nc2ccc(F)cc2)[n+]2ccccc2)c(C)n1Cc1ccccc1Cl`, the “growth rescue (activation)” value was inactive: 4.27%. In the case of `Cc1cccc(S(=O)(=O)NCCNS(=O)(=O)c2cccc(C)c2)c1`, the “growth rescue (activation)” value was inactive: 1.71%. In the case of `Cc1cc(F)ccc1S(=O)(=O)Nc1ccccc1C(=O)NC1CCN(Cc2ccccc2)CC1`, the “growth rescue (activation)” value was inactive: -2.05%. For `COc1cccc(CNC(=O)CN(C)S(=O)(=O)c2cnc[nH]2)c1`, the “growth rescue (activation)” value was inactive: -4.78%. For `COc1ccc(/C(C)=N/NC(=O)Cc2c(C)nc(C)[nH]c2=O)cc1`, the “growth rescue (activation)” value was inactive: -23.9%. For `Cc1ccc(S(=O)(=O)N2CC(=NN=C(N)N)C2)cc1`, the “growth rescue (activation)” value was inactive: 5.02%. With `COc1cccc(CN2CCNC(=O)C2CC(=O)N(C)Cc2cnccn2)c1OC` (configuration not stated) the “growth rescue (activation)” value was inactive: -4.56%. With `COc1ccc(-c2c(C#N)c(SCC(=O)Nc3ccccc3C)nc(C)c2C(=O)Nc2ccccc2)cc1OC` the “growth rescue (activation)” value was inactive: 2.3%. In the case of `CC1CCCN(C(=S)SCC(=O)O)C1` (configuration not stated), the “growth rescue (activation)” value was inactive: 17%. With `O=C(c1ccc(F)cc1F)N1CCCC(c2nc(-c3ccc(F)cc3)no2)C1` (configuration not stated) the “growth rescue (activation)” value was inactive: 15.2%. With `Cc1cc(C)cc(OCC(=O)OC/C(O)=C(\C#N)c2nc3ccccc3[nH]2)c1` the “growth rescue (activation)” value was inactive: 1.84%. With `NC(=O)C1CCN(C(=O)CC2(CC(=O)O)CCCC2)CC1` the “growth rescue (activation)” value was inactive: -9.99%. With `COc1ccc(OC)c(S(=O)(=O)NC(=O)C2(C)CCN2C(=O)Cc2ccccc2Cl)c1` (configuration not stated) the “growth rescue (activation)” value was inactive: 4.44%. With `COc1ccc(/C=C/C(=O)NCc2ccc(F)cc2)cc1S(=O)(=O)N1CCOCC1` the “growth rescue (activation)” value was inactive: 22.4%. For `O=C(NN1CCN(Cc2ccccc2)CC1)c1ccc(N2CCOCC2)c([N+](=O)[O-])c1`, the “growth rescue (activation)” value was inactive: 14.8%. With `O=C(C1=C(O)C(=O)N(CC2CCCO2)C1c1ccccc1Cl)c1ccco1` (configuration not stated) the “growth rescue (activation)” value was inactive: -20%. With `CN(c1ccccc1C(=O)Nc1ccc(F)c(F)c1)S(C)(=O)=O` the “growth rescue (activation)” value was inactive: 9.86%. In the case of `Cn1cc(CN2CCCC(CNC(=O)c3ccc4c(c3)OCO4)C2)c2ccccc21` (configuration not stated), the “growth rescue (activation)” value was inactive: 7.27%. In the case of `Cc1nc(N2CCN(c3ccccn3)CC2)c2c(C)c(C(=O)Nc3ccc(F)cc3)sc2n1`, the “growth rescue (activation)” value was inactive: -14.7%. With `OCCC1CN(Cc2ccc3nsnc3c2)CCN1C1CCCCC1` (configuration not stated) the “growth rescue (activation)” value was inactive: 2.01%. In the case of `Cc1ccc(NC(=O)COC(=O)CSC(=S)N2CCOCC2)cc1`, the “growth rescue (activation)” value was inactive: -5.32%. With `CCCC12C(=O)C(C)(C(c3ccccc3)=C1c1ccccc1)C1C(=O)N(c3ccc(C)cc3)C(=O)C12` (configuration not stated) the “growth rescue (activation)” value was inactive: 2.6%. In the case of `Cc1csc(NC(=O)Cc2c(F)cccc2Cl)n1`, the “growth rescue (activation)” value was inactive: 19.5%. In the case of `COc1ccccc1NC(=O)CN1C(=O)C(c2ccc(F)cc2)=NC1(C)C`, the “growth rescue (activation)” value was inactive: 10%. With `Cc1cc(C)c2c(c1)[C@@H]1C=CC[C@@H]1[C@H](c1ccc(S(=O)(=O)N3CCOCC3)cc1)N2` the “growth rescue (activation)” value was inactive: 13.4%. In the case of `COc1ccc(C)cc1NC(=O)CN1CCN(c2ccc(F)cc2)CC1`, the “growth rescue (activation)” value was inactive: 26.6%.
